Laboratory results from the supplement of paper PMC7826260.
The other results are listed elsewhere or left out. Each Rep nickase domain was tested in vitro on the same pool of single strands for 1 h at 37 °C with 3 µM enzyme; only the middle of the 90-letter strands is printed. The score is log2 (uncut reads / reads without enzyme); strong cutting gives strongly negative numbers. There is no active / inactive call. Reads are scaled to the total; where an enzyme cuts many sequences, the uncut ones exceed 0.

Key:
Assay in all cases: uncleaved DNA left, log2 of reads against the no-enzyme library (log2 ratio); higher = less cleavage (more negative = more Rep cleavage of the k-mer); sequences stand for … in CTCGTCCG…ACCGGAGA
[1] = system: T1, Rep nickase domain of Muscovy duck circovirus
T1 sequence (protein, residues 1-111, tag omitted): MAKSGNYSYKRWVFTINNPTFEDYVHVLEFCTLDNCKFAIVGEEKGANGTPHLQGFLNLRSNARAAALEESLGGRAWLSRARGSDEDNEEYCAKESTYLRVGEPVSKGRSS
Procedure: (§1)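 A pool of 90-nt single-stranded DNAs with seven random bases just before the constant AC of the nick site (name = the seven bases) was cut by 3 µM recombinant His6-SUMO-tagged Rep nickase domain (300 nM DNA, 50 mM HEPES pH 8.0, 50 mM NaCl, 1 mM MnCl2, 1 h, 37 °C, three replicates). Uncut DNA was amplified and sequenced.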

[2] = system: T2, Rep nickase domain of banana bunchy top virus
T2 sequence (protein, residues 1-94, tag omitted): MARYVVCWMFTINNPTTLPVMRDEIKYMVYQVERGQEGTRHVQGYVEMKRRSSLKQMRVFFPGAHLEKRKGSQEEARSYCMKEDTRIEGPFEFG
Procedure: as §1

[3] = system: T3, Rep nickase domain of cabbage leaf curl virus
T3 sequence (protein, residues 1-116, tag omitted): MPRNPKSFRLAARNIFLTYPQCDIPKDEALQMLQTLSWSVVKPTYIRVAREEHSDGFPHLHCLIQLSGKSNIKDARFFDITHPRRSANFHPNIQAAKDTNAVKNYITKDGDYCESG
Procedure: as §1

[4] = system: T4, Rep nickase domain of chickpea chlorotic dwarf virus
T4 sequence (protein, residues 1-124, tag omitted): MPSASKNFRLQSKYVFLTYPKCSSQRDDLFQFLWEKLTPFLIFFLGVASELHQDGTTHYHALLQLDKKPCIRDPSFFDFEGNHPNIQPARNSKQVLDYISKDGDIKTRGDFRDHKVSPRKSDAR
Procedure: as §1

[5] = system: T5, Rep nickase domain of faba bean necrotic yellows virus
T5 sequence (protein, residues 1-98, tag omitted): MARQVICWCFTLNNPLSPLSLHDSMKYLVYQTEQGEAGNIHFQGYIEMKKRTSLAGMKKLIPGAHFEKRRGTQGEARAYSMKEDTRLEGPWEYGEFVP
Procedure: as §1

[6] = system: T6, Rep nickase domain of maize striate mosaic virus
T6 sequence (protein, residues 1-117, tag omitted): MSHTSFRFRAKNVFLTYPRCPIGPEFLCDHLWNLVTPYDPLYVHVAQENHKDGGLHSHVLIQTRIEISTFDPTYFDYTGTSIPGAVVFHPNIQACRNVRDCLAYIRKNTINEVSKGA
Procedure: as §1

[7] = system: T7, Rep nickase domain of porcine circovirus 2
T7 sequence (protein, residues 2-116, tag omitted): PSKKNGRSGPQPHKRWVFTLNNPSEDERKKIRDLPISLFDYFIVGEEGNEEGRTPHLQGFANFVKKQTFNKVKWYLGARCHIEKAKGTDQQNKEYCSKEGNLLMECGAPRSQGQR
Procedure: as §1

[8] = system: T8, Rep nickase domain of tomato golden mosaic virus
T8 sequence (protein, residues 1-124, tag omitted): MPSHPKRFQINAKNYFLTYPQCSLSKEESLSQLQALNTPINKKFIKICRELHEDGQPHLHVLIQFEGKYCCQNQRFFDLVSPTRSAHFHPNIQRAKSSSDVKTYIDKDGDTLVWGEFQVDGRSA
Procedure: as §1

[9] = system: T9, Rep nickase domain of tomato yellow leaf curl virus
T9 sequence (protein, residues 1-136, tag omitted): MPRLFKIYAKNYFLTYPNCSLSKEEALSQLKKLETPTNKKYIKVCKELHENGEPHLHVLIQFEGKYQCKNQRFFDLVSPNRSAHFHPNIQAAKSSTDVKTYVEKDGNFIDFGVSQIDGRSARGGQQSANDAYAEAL
Procedure: as §1

[10] = system: T10, Rep nickase domain of wheat dwarf virus
T10 sequence (protein, residues 1-137, tag omitted): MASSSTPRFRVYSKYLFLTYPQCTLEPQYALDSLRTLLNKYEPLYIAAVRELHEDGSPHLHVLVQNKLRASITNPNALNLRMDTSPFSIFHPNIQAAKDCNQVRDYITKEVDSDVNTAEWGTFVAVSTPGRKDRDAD
Procedure: as §1

Sequence	uncleaved DNA left (log2) [1]	uncleaved DNA left (log2) [2]	uncleaved DNA left (log2) [3]	uncleaved DNA left (log2) [4]	uncleaved DNA left (log2) [5]	uncleaved DNA left (log2) [6]	uncleaved DNA left (log2) [7]	uncleaved DNA left (log2) [8]	uncleaved DNA left (log2) [9]	uncleaved DNA left (log2) [10]
GTGGCTA	0.00475	-0.127	0.351	1.05	0.0173	1.82	0.0247	0.0619	0.00211	0.00419
TATTCTC	-3.63	-2.98	-0.231	-0.85	-0.1	-0.619	-3.21	-0.173	-0.0163	-0.268
CAGTGGG	0.0226	-0.089	-0.736	-0.378	0.058	-0.94	0.134	-0.0368	0.218	-0.0983
CATACTC	0.0801	0.0241	-0.0886	-1.37	-0.0736	-0.797	0.0901	-0.0891	-0.0296	-0.0143
TAACACC	0.0366	0.0166	-1.89	-2.64	0.0401	-0.47	-0.134	-0.0609	-0.0657	-0.229
GGTGTGC	-0.0314	-0.0272	0.242	0.658	-0.0291	0.594	0.0577	-0.0665	-0.0893	0.0263
TGGTACA	0.0389	0.0718	0.137	0.323	-0.0934	1.72	-0.149	-0.0548	0.0249	-0.0811
GCTCGAC	0.0416	-0.0785	0.102	0.486	0.00418	0.29	-0.0272	-0.0429	-0.0289	-0.0411
GGTCGTG	0.164	0.119	0.162	0.259	0.144	0.125	0.254	0.0624	0.0996	0.0762
AGCGTTA	-0.0499	0.0512	-0.071	-0.0201	0.0275	0.652	-1.01	0.0421	0.0667	0.0381
CTCTACG	-0.0743	0.0162	-0.973	-0.621	-0.0394	-0.986	0.0424	-0.116	-0.148	-0.000323
GGTGAGG	0.0805	0.0176	0.52	1.22	-0.0645	1.66	0.224	0.0796	0.0626	0.0323
AGTCGGC	-0.0291	0.161	0.0614	0.26	0.138	0.108	0.181	0.199	0.109	0.167
GGATCAC	-0.00137	0.0739	0.611	1.48	-0.0616	1.96	0.179	-0.108	0.0808	0.109
ACGGGGG	0.115	-0.00939	0.275	0.528	0.0279	0.285	0.154	0.053	-0.0124	-0.0248
GGGGGCA	0.054	0.139	0.97	1.89	-0.0425	2.29	0.202	0.0321	0.0863	0.136
CGAATCC	0.0296	0.0803	0.0832	0.121	-0.0213	-0.303	0.0174	0.0324	0.0731	0.0617
ACTCTTC	0.00809	-0.0242	-0.0781	-0.372	-0.0339	-0.913	0.128	0.0242	-0.0665	-0.0762
GTGTGGA	0.14	0.13	0.401	0.912	0.122	1.18	0.0706	0.106	0.0644	0.0342
GCCGCTC	0.161	-0.0746	0.104	0.333	0.0923	-0.0127	0.0325	-0.0291	0.007	0.00188
GAAGCTA	0.133	0.175	0.345	0.363	0.169	1.19	0.223	0.218	0.0868	0.102

Sequence	uncleaved DNA left (log2) [1]	uncleaved DNA left (log2) [2]	uncleaved DNA left (log2) [3]	uncleaved DNA left (log2) [4]	uncleaved DNA left (log2) [5]	uncleaved DNA left (log2) [6]	uncleaved DNA left (log2) [7]	uncleaved DNA left (log2) [8]	uncleaved DNA left (log2) [9]	uncleaved DNA left (log2) [10]
GGTTAGT	-0.474	-0.0202	0.47	1.04	-0.0778	1.64	-1.59	0.0323	0.0689	0.111
CCCATAT	-0.171	-0.168	-0.239	-0.673	-0.118	-0.747	-0.251	-0.0102	-0.122	-0.14
TGTATGT	0.0235	0.0283	0.2	0.0802	-0.00947	-0.0259	-0.967	-0.0031	0.092	0.0591
TTTTTTA	-0.111	0.0431	0.114	-0.786	0.095	0.405	-0.206	0.115	0.0651	0.016
TTCCTCG	-0.0483	0.0219	-0.891	-0.361	-0.0706	-1.08	0.00079	-0.179	-0.0284	-0.202
TTATAAT	-3.65	-0.113	-3.03	-3.05	-0.102	-1.74	-3.76	-2.33	0.0219	-2.45
GTCTCCT	-0.0564	0.018	0.202	0.257	-0.178	1.54	-0.226	-0.00936	0.00843	0.0139
CAAGGTG	0.00662	0.0215	0.0341	0.801	0.0152	0.847	0.128	0.0679	-0.0487	0.0468
CCAATTA	0.0284	0.0201	0.0789	-1.16	0.15	-0.666	0.109	0.227	-0.0345	0.197
ACCACTT	0.0325	-0.0431	-0.258	-2.88	0.0414	-0.603	-0.255	0.0536	-0.0457	-0.0715
TTTACAG	0.07	-0.0555	-0.833	-2.01	0.0251	-1.14	0.114	-0.035	-0.0264	0.0168
GTTTGTA	0.0438	0.012	0.325	0.876	0.0207	1.73	0.0464	0.0771	0.199	0.0711
ACACGCA	0.0695	-0.0246	-0.598	-0.938	0.00578	-0.918	0.173	-0.0214	0.00535	-0.0455
CCACTAC	-0.047	-0.21	-0.266	-2.1	-0.0491	-0.848	0.0119	-0.127	-0.0939	-0.0841
CCCTGAG	-0.136	-0.0258	-0.676	-0.182	0.066	-0.99	0.109	0.0304	0.0772	-0.034
CTCATGT	0.0694	0.0811	-0.124	-0.453	-0.05	-0.961	-0.0749	-0.0252	0.0107	-0.0814
CGCCTTT	0.00358	0.12	-0.0592	-1.2	0.16	-0.154	-0.232	-0.215	-0.00619	-0.0174
GTGCGTT	0.0463	0.057	-0.266	-0.041	0.0883	-0.258	0.00899	0.0594	0.0921	-0.00209
ACAGGGG	0.0344	0.0299	0.309	0.914	0.0506	0.326	0.274	0.138	0.0735	0.00205
TAAGGTT	-0.0609	0.108	-2.7	-1.76	0.0597	1.6	0.0982	-0.0647	-0.106	-0.459
ATACCGT	-0.0295	-0.0537	-0.429	-0.873	-0.096	-0.878	-0.0308	-0.0245	-0.0756	-0.219

Sequence	uncleaved DNA left (log2) [1]	uncleaved DNA left (log2) [2]	uncleaved DNA left (log2) [3]	uncleaved DNA left (log2) [4]	uncleaved DNA left (log2) [5]	uncleaved DNA left (log2) [6]	uncleaved DNA left (log2) [7]	uncleaved DNA left (log2) [8]	uncleaved DNA left (log2) [9]	uncleaved DNA left (log2) [10]
TAGAATT	0.0442	-3.22	-2.8	-2.67	-3.09	-0.26	-4.02	-0.309	0.0258	-0.528
GGATGTC	0.0677	0.224	0.706	1.41	0.127	1.94	0.188	0.0796	0.071	0.153
ACACGGT	0.0372	0.00915	-0.514	-0.691	-0.112	-0.606	-0.00767	0.0413	-0.115	-0.182
TGTCCCG	-0.131	-0.0361	-0.741	-0.379	-0.0102	-0.857	-0.475	-0.0698	-0.0054	-0.0403
TAGAGAC	-0.115	-0.038	0.366	0.926	-0.00803	0.857	-0.0305	-0.121	-0.0258	-0.00614
GCATTTC	0.081	-0.0454	0.0629	0.313	0.106	-0.402	0.153	0.149	0.0684	0.124
CGTAGAC	-0.112	-0.151	0.15	0.419	-0.115	0.208	-0.0407	-0.156	-0.159	-0.0289
TGCGACT	-0.0897	0.04	-0.101	0.543	-0.0918	1.62	0.0512	0.000399	-0.0747	0.0591
CGTTAAT	-2.43	-0.267	-0.0117	-0.636	-0.058	-0.362	-3.04	-0.095	0.042	-0.121
CAAAGTC	0.101	0.0413	-0.803	-1.02	0.0126	-1.06	0.0447	-0.0352	-0.0229	-0.169
CTTCCCA	-0.201	-0.00471	0.0363	-1.1	-0.0785	-0.655	-1.95	-0.0985	0.132	0.121
TCCATAG	0.104	0.0224	-0.744	-0.626	0.065	-1.23	0.149	0.17	0.189	-0.0349
GCAGTGG	0.0151	-0.0128	-0.294	-0.149	0.207	-0.677	0.17	0.102	0.0501	-0.0497
CGACTCT	0.0756	-0.111	-0.0123	-0.181	0.0872	0.79	-0.151	-0.196	0.132	0.0221
AGGGTAT	0.0683	0.0999	0.279	1.63	0.0423	1.85	0.167	0.165	-0.0934	0.0313
CGGCGCG	-0.195	-0.139	-0.679	-0.336	-0.15	-0.842	0.0103	-0.0371	-0.133	-0.221
TTGCTTT	0.0473	-0.0103	-0.363	-1.75	-0.00383	-0.915	-0.309	0.02	0.0688	-0.0714
GGTAAGA	-0.0119	0.021	0.609	1.35	0.000384	1.75	0.262	0.0672	0.0617	0.136
TATTTAA	-2.84	-0.32	0.0834	-0.427	0.0344	-0.244	-1.05	-0.0319	-0.0099	0.0853
AGTCACC	0.0161	-0.128	0.157	0.24	-0.148	0.0901	-0.31	-0.0836	-0.0948	-0.0824
